From a collection of fitness landscapes (doi:10.1016/j.celrep.2020.107928)
In all, about 81,000 sequences were measured (“one-hybrid fitness for binding NBS DNA”: median about -0.1, highest 2% from about 0.36 on). The list shows a part of the results.

B1: Caulobacter ParB omega fusion; a variant is named by its letters at X, in order, B8GW30 (parent)
chain: MESVVVGEPGMSEGRRGLGRGLSALLGEVDAAPAQAPGEQLGGSREAPIEILQRNPDQPRRTFREEDLEDLSNSIREKGVLQPILVRPSPDTAGEYQIVAGERAWRAAQRAGLKTVPIMVRELDDLAVLEIGIIENVQRADLNVLEEALSYKVLMEKFERTQENIAQTIGKSXSHVANXMRLLXLPDEVQSYLVSGELTAXHARAIAAAADPVALAKQIIEGGLSVRETEALARKAPNLSAGKSKGGRPPRVKDTDTQALESDLSSVLGLDVSIDHRGSTGTLTITYATLEQLDDLCNRLTRGI

Variants of: B1
Experiment: one-hybrid fitness for binding NBS DNA (the Noc-binding site; scaled: cognate 1, non-cognate 0); higher = stronger binding
Settings: with NBS DNA site
Outline: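 Fitness here means the log change in variant-to-wild-type read ratio between plasmids sequenced before and after selection. That scale was set so cognate equals 1 and non-cognate equals 0. The selection was a bacterial one-hybrid screen of Caulobacter ParB libraries, four specificity codons randomised, in E. coli USO carrying a HIS3 reporter with the site 19 bp from the promoter, grown 48 hours at 37°C on M9-minus-histidine with 0.1 mM IPTG and 5 mM 3-AT.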

| Variant | one-hybrid fitness for binding NBS DNA |
| --- | --- |
| MSTT | ≤ 0.2 |
| NSPV | ≤ 0.2 |
| DMLR | ≤ 0.2 |
| GKLR | ≤ 0.2 |
| STPF | ≤ 0.2 |
| VRQA | ≤ 0.2 |
| AMPE | ≤ 0.2 |
| MVHT | ≤ 0.2 |
| NVVY | ≤ 0.2 |
| HVDI | ≤ 0.2 |
| YKSK | ≤ 0.2 |
| ITVY | ≤ 0.2 |
| QQSQ | ≤ 0.2 |
| DVVM | ≤ 0.2 |
| PAWF | ≤ 0.2 |
| RGCK | ≤ 0.2 |
| ASVT | ≤ 0.2 |
| TIEW | ≤ 0.2 |
| QKAL | ≤ 0.2 |
| HYCW | ≤ 0.2 |
| IQAN | ≤ 0.2 |
| ASNH | ≤ 0.2 |
| RFHT | 0.263 |
| YDRK | ≤ 0.2 |
| QRCD | 0.237 |

| Variant | one-hybrid fitness for binding NBS DNA |
| --- | --- |
| WQVG | ≤ 0.2 |
| NTHM | ≤ 0.2 |
| TNWS | ≤ 0.2 |
| AYHW | ≤ 0.2 |
| TLKF | ≤ 0.2 |
| PFRS | ≤ 0.2 |
| MQCG | ≤ 0.2 |
| RQLW | ≤ 0.2 |
| GLPV | ≤ 0.2 |
| TCSD | ≤ 0.2 |
| IMHS | ≤ 0.2 |
| TEFR | ≤ 0.2 |
| EWLS | ≤ 0.2 |
| EGPM | ≤ 0.2 |
| LKQD | ≤ 0.2 |
| CYDY | ≤ 0.2 |
| ETPS | ≤ 0.2 |
| LQFS | ≤ 0.2 |
| GTNV | ≤ 0.2 |
| CGCS | ≤ 0.2 |
| KPAI | ≤ 0.2 |
| YDTV | ≤ 0.2 |
| NPTF | ≤ 0.2 |
| QQSF | ≤ 0.2 |
| PNTA | ≤ 0.2 |

| Variant | one-hybrid fitness for binding NBS DNA |
| --- | --- |
| IRVY | ≤ 0.2 |
| TSFS | ≤ 0.2 |
| VNTK | ≤ 0.2 |
| YAAA | ≤ 0.2 |
| IGRY | ≤ 0.2 |
| RRWS | 0.628 |
| VYNV | ≤ 0.2 |
| SQRH | ≤ 0.2 |
| KSLC | ≤ 0.2 |
| RENF | ≤ 0.2 |
| IIAM | ≤ 0.2 |
| RKLD | ≤ 0.2 |
| VKGC | ≤ 0.2 |
| PMLV | ≤ 0.2 |
| RLSL | ≤ 0.2 |
| VYHP | ≤ 0.2 |
| HPSA | ≤ 0.2 |
| TQTN | ≤ 0.2 |
| VRWS | ≤ 0.2 |
| WTFR | ≤ 0.2 |
| ERIR | ≤ 0.2 |
| APRR | ≤ 0.2 |
| KQTH | ≤ 0.2 |
| AQTR | ≤ 0.2 |
| FSCC | ≤ 0.2 |

| Variant | one-hybrid fitness for binding NBS DNA |
| --- | --- |
| VTGI | ≤ 0.2 |
| DCLC | ≤ 0.2 |
| DYPV | ≤ 0.2 |
| RYNT | 0.514 |
| VYKT | ≤ 0.2 |
| RDMT | ≤ 0.2 |
| RSLK | ≤ 0.2 |
| VRKK | ≤ 0.2 |
| MKPK | ≤ 0.2 |
| RIKY | 0.246 |
| SAAL | ≤ 0.2 |
| AQCP | ≤ 0.2 |
| YRCG | ≤ 0.2 |
| APYG | ≤ 0.2 |
| RHRW | ≤ 0.2 |
| LPAN | ≤ 0.2 |
| TKWV | ≤ 0.2 |
| HRDV | ≤ 0.2 |
| QFPV | ≤ 0.2 |
| WTSM | ≤ 0.2 |
| VSVI | ≤ 0.2 |
| CNRA | ≤ 0.2 |
